Test results: patent publication US4552888A, “Ascorbic acid ethers in angiogene” (Eli Lilly and Company, priority 1983, dated 1985)
“And” between values parts separate entries of the source, which are not always exact repeats. Equal values may be shown once. The name of at least one read-out is uncertain.

Test system: angiogenesis factor
Experiment: Inhibition of angiogenesis factor (3683 Morris hepatoma lysosomal-mitochondrial pellet) induced serpentine vessels in mice
Assay type: in vivo, mice (SPF/ND4 female)
Conditions: for average % inhibition (serpentine vessels): Table 1
Experimental: Lysosomal-mitochondrial pellets containing angiogenesis factor are prepared from 3683 Morris hepatoma. The pellet is diluted with 7-8 ml. of 15% ficoll. With this dilution, 8-10 serpentine vessels will be produced per 0.2 cc. injection as described below for the control group.
Next, 15 SPF/ND4 female mice weighing 20-22 g. are shaved on the left side and then divided into three groups of five each. One group (drug group) is injected subcutaneously and laterally with 0.20 cc. of the lysosomal-mitochondrial preparation diluted with 15% ficoll. This group of mice is then dosed individually by the intraperitoneal route with 0.5 cc. of a solution or suspension in a standard vehicle containing the compound under test, usually at an initial dose level of 300 mg./kg. If this dose level is toxic, two-fold dilutions are made until all mice survive a single dose. The second group of mice (control group) is injected subcutaneously and laterally with 0.2 cc. of the lysosomal-mitochondrial suspension diluted with 15% ficoll and dosed intraperitoneally with 0.5 cc. of the vehicle alone. The third group (negative control) is injected with ficoll solution only (no treatment with drug or vehicle). The mice are sacrificed after 24 hours. Each mouse is placed on its side on a dissecting board with the shaved side up. Starting at the flank, the skin is cut straight to the back of the animal. A similar cut is made behind the front leg. Then the skin is cut along the back making a flap of about one inch by two inches. The skin is carefully separated from the connective tissue using forceps and a scalpel. The skin flap is then laid back exposing the lysosomal-mitochondrial implant which is attached to the skin. The skin flap is gently flattened out and with the use of a binocular dissecting scope, serpentine vessels are observed around the lysosomal-mitochondrial implant and their number counted. All observations of the number of serpentine vessels are made at the same power of the microscope (1X). The average number of serpentine vessels for each group is calculated. The percent inhibition is then calculated according to the following equation. [formula] where sv=average number of serpentine vessels.
If the negative control group described above has any serpentine vessels, the test is invalid due to contamination of the ficoll solution.
Table I covers compounds according to formula I above in which R^2 and R^3 are both H, table II covers compounds in which R^2 and R^3 form a 1-methylethylidene group, and Table III compounds in which R^2 plus R^3 equal a benzylidene group or other group.
One of the compounds of this invention, 3-O-n-octadecyl-5,6-O-(1-methylethylidene)-L-ascorbic acid was tested at a series of dose levels for its ability to inhibit tumor angiogenesis and the results of these tests are set forth in Table IV.

[1] = Table 2, i.p., range dose 25-150 mg./kg., 24 hours
[2] = i.p., range dose 25-300 mg./kg., 24 hours

Compound: CCCCCCCCCCCCCCCCCCOC1=C(O)C(=O)O[C@@H]1[C@@H]1COC(C)(C)O1 [3-O-n-octadecyl-5,6-O-(1-methylethylidene)-L-ascorbic acid]
- % inhibition (serpentine vessels) (Table 2, i.p., range dose 25-300 mg./kg., 24 hours): 38-82%
- % inhibition (serpentine vessels) (Table 4, intraperitoneal dose 15 mg./kg., individual results): 45% and 17%
- % inhibition (serpentine vessels) (Table 4, intraperitoneal dose 30 mg./kg., individual results): 38%
- % inhibition (serpentine vessels) (Table 4, intraperitoneal dose 60 mg./kg., individual results): 72% and 50%
- % inhibition (serpentine vessels) (Table 4, intraperitoneal dose 120 mg./kg., individual results): 78% and 75% and 71%
- % inhibition (serpentine vessels) (Table 4, intraperitoneal dose 240 mg./kg., individual results): 78%

Compound: CC1(C)OC[C@@H]([C@H]2OC(=O)C(OCCCCC#N)=C2OCCCCC#N)O1 [2,3-O-bis(4-cyanobutyl)-5,6-O-(1-methylethylidene)-L-ascorbic acid]
- % inhibition (serpentine vessels) [1]: 47-82%

Compound: CCCCCCCCCCCCCCCCOC1=C(OCCCCCCCCCCCCCCCC)[C@@H]([C@@H](O)CO)OC1=O [2,3-di-(O-n-hexadecyl)-L-ascorbic acid]
- average % inhibition (serpentine vessels) (i.p., range dose 25-150 mg./kg., 24 hours): 13%

Compound: O=C1O[C@H]([C@@H](O)CO)C(OCc2ccc(Cl)cc2)=C1O [3-O-(4-chlorobenzyl)-L-ascorbic acid]
- average % inhibition (serpentine vessels) [2]: 36%

Compound: CCCCCCCCCCCCCCCOC1=C(OCCCCCCCCCCCCCCC)[C@@H]([C@@H](O)CO)OC1=O [2,3-di-(O-n-pentadecyl)-L-ascorbic acid]
- average % inhibition (serpentine vessels) [2]: 38%

Compound: CCCCCCCCCCCCCCCCCCOC1=C(O)C(=O)O[C@@H]1[C@@H](O)CO [3-O-n-octadecyl-L-ascorbic acid]
- average % inhibition (serpentine vessels) [2]: 82%

Compound: Cc1ccc(C)c(COC2=C(O)C(=O)O[C@@H]2[C@@H](O)CO)c1 [3-O-(2,5-dimethylbenzyl)-L-ascorbic acid]
- average % inhibition (serpentine vessels) [2]: 47%

Compound: CCCCCCCCCCCCOC1=C(O)C(=O)O[C@@H]1[C@@H](O)CO [3-O-n-dodecyl-L-ascorbic acid]
- average % inhibition (serpentine vessels) [2]: 59%

Compound: CC1(C)OC[C@@H]([C@H]2OC(=O)C(O)=C2OCCCCC#N)O1 [3-O-(4-cyanobutyl)-5,6-O-(1-methylethylidene)-L-ascorbic acid]
- % inhibition (serpentine vessels) (Table 2, i.p., range dose 37.5-150 mg./kg., 24 hours): 37-72%

Compound: CCCCCCCCCCCCCCCOC1=C(OCCCCCCCCCCCCCCC)[C@@H]([C@@H]2COC(C)(C)O2)OC1=O [2,3-O-bis(n-pentadecyl)-5,6-O-(1-methylethylidene)-L-ascorbic acid]
- % inhibition (serpentine vessels) [1]: 15-85%

Compound: CCCCCCCCCCCCCCCOC1=C(O)C(=O)O[C@@H]1[C@@H]1COC(C)(C)O1 [3-O-n-pentadecyl-5,6-O-(1-methylethylidene)-L-ascorbic acid]
- % inhibition (serpentine vessels) [1]: 15-85%

Compound: O=C1O[C@H]([C@@H](O)CO)C(OCc2cccc(C(F)(F)F)c2)=C1O [3-O-(3-trifluoromethylbenzyl)-L-ascorbic acid]
- average % inhibition (serpentine vessels) [2]: 53%

Compound: O=C1O[C@H]([C@@H](O)CO)C(OCc2c(Cl)cccc2Cl)=C1O [3-O-(2,6-dichlorobenzyl)-L-ascorbic acid]
- average % inhibition (serpentine vessels) (i.p., range dose 150-300 mg./kg., 24 hours): 56%
